Reference: article PMC9556525
Results are given in words; binding and its absence hold for the method and conditions named. In cells and extracts the contact can be indirect. Some entries that bind do so weakly or less than the wild type. For some assays here: Sequences can lack the tags named with a protein.

Chains of the proteins cited; added tags and fusions are not shown. Lines headed by an entry give the natural chain unless they say otherwise; changes in a name come on top.
UniProt P38432: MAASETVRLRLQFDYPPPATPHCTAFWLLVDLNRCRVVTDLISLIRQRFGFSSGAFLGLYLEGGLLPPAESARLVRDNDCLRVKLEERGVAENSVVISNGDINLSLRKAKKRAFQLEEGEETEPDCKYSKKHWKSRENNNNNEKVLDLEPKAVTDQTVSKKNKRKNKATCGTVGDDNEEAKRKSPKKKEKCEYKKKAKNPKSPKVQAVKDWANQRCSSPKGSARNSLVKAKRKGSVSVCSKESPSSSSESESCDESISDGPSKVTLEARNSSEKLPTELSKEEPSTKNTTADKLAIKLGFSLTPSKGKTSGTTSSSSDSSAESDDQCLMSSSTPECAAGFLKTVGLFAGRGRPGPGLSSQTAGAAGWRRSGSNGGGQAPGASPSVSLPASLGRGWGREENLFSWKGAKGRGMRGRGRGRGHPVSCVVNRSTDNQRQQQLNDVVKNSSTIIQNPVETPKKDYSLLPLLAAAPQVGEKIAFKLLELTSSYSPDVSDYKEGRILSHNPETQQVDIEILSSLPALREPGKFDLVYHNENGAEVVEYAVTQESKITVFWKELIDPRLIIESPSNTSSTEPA

Experiments:
[1] = target: coilin R36A fused to CFP or YFP (human) (UniProt P38432); assay: FRET or BRET; acceptor photobleaching FRET between CFP (donor) and YFP (acceptor) fusions co-expressed in HeLa cells, fixed in 2% paraformaldehyde; apparent FRET efficiency; Fig. 4c, d
coilin R36A-GFP (human) = coilin R36A-GFP (human) (UniProt P38432); assay: co-IP; coilin-GFP bait transfected into HeLa cells; Pierce lysis buffer with protease inhibitors, clarified lysate; goat anti-GFP overnight, Protein G magnetic beads, three washes; endogenous prey detected by Western blot
coilin R8A-GFP (human) = coilin R8A-GFP (human) (UniProt P38432); assay: as above
coilin D79A-GFP (human) = coilin D79A-GFP (human) (UniProt P38432); assay: as above
[2] = target: wild-type coilin-GFP (human) (UniProt P38432); assay: as above
[3] = target: coilin R8A fused to CFP or YFP (human) (UniProt P38432); assay: FRET or BRET; acceptor photobleaching FRET between CFP (donor) and YFP (acceptor) fusions co-expressed in HeLa cells, fixed in 2% paraformaldehyde; apparent FRET efficiency; Fig. 4c, d

coilin R36A fused to CFP or YFP (from UniProt P38432 1-576)
binding [1]: binds

endogenous coilin (from UniProt P38432 1-576)
binding (coilin R36A-GFP (human)): binds | binding (coilin R8A-GFP (human)): binds | binding (coilin D79A-GFP (human)): binds

B1: endogenous Nopp140 (protein, UniProt Q14978 1-699)
chain: MADAGIRRVVPSDLYPLVLGFLRDNQLSEVANKFAKATGATQQDANASSLLDIYSFWLKSAKVPERKLQANGPVAKKAKKKASSSDSEDSSEEEEEVQGPPAKKAAVPAKRVGLPPGKAAAKASESSSSEESSDDDDEEDQKKQPVQKGVKPQAKAAKAPPKKAKSSDSDSDSSSEDEPPKNQKPKITPVTVKAQTKAPPKPARAAPKIANGKAASSSSSSSSSSSSDDSEEEKAAATPKKTVPKKQVVAKAPVKAATTPTRKSSSSEDSSSDEEEEQKKPMKNKPGPYSSVPPPSAPPPKKSLGTQPPKKAVEKQQPVESSEDSSDESDSSSEEEKKPPTKAVVSKATTKPPPAKKAAESSSDSSDSDSSEDDEAPSKPAGTTKNSSNKPAVTTKSPAVKPAAAPKQPVGGGQKLLTRKADSSSSEEESSSSEEEKTKKMVATTKPKATAKAALSLPAKQAPQGSRDSSSDSDSSSSEEEEEKTSKSAVKKKPQKVAGGAAPSKPASAKKGKAESSNSSSSDDSSEEEEEKLKGKGSPRPQAPKANGTSALTAQNGKAAKNSEEEEEEKKKAAVVVSKSGSLKKRKQNEAAKEAETPQAKKIKLQTPNTFPKRKKGEKRASSPFRRVREEEIEVDSRVADNSFDAKRGAAGDWGERANQVLKFTKGKSFRHEKTKKKRGSYRGGSISVQVNSIKFDSE
binding (coilin R36A-GFP (human)): no binding | binding (coilin R8A-GFP (human)): no binding | binding [2]: binds

B2: Nopp140-YFP (protein, UniProt Q14978 1-699)
chain: B1 chain
binding [3]: no binding
